Test results as given in the supplement of paper PMC3334620.
In all, about 33,000 sequences were measured (“E-score (-0.5 to 0.5)”: median about -0.043, highest 2% from about 0.37 on). Some of the results follow.

What follows are sequences tested against T1, Upc2 (UniProt Q12151) (assay: PBM E-score (8-mer binding enrichment) (E-score (-0.5 to 0.5)); higher = stronger / more preferred TF binding; most listed sequences are background and not binding sites). Conditions: protein concentration: 200 nM; construct: GST-full length.
T1 sequence: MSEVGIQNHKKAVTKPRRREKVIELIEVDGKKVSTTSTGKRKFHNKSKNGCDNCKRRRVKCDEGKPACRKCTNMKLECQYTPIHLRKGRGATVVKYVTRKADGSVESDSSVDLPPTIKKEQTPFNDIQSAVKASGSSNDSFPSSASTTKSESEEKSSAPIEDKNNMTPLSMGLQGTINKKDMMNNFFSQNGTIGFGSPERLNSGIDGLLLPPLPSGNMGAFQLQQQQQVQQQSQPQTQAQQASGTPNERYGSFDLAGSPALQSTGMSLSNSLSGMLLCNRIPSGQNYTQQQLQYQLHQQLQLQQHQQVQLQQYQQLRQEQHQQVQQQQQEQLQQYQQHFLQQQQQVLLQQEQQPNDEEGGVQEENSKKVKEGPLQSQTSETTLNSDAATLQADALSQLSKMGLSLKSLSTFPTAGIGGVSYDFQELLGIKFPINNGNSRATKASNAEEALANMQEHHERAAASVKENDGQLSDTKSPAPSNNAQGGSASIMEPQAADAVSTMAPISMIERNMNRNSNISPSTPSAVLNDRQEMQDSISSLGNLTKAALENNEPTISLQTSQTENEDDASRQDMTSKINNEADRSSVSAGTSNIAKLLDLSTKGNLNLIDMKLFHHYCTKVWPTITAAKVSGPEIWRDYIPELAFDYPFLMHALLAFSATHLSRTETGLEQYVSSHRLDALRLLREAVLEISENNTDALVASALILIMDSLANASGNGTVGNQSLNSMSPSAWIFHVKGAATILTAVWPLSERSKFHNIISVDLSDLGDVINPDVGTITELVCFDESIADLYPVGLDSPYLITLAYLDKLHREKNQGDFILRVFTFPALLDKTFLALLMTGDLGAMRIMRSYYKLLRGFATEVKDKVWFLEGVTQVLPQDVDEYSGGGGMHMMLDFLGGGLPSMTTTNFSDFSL
Description: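 Universal 'all 10-mer' protein binding microarrays (Agilent AMADID 015681) probed with GST-tagged S. cerevisiae TFs (full-length or DBD) made by in vitro transcription/translation (PURExpress), about 100-200 nM. Bound TF was detected with fluorescent anti-GST. Each ungapped 8-mer (which stands for itself and its reverse complement) is scored by the PBM enrichment score (E-score), a modified Wilcoxon-Mann-Whitney statistic from -0.5 to +0.5, computed with the Universal PBM Analysis Suite. Scale: above 0.35 generally sequence-specific binding.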

Q: How did the “PBM E-score” value turn out when TGGTAAAA was run?
A: 0.00024

Q: How did the “PBM E-score” value turn out when ACTAAGAT was run?
A: 0.126

Q: CGTAGGTC was tested. Which “PBM E-score” value did it give?
A: -0.0765

Q: Which “PBM E-score” value does the source give for TCATGTAA here?
A: 0.0269

Q: For AAATGCGT, which “PBM E-score” value is on record?
A: 0.177

Q: AGCGGCCC was tested. Which “PBM E-score” value did it give?
A: -0.149

Q: Which “PBM E-score” value does the source give for GAGTCTGA here?
A: -0.05

Q: How did the “PBM E-score” value turn out when CATAGACA was run?
A: 0.0415

Q: How did the “PBM E-score” value turn out when ATTTGTAC was run?
A: 0.16

Q: How did the “PBM E-score” value turn out when CAAGCCTG was run?
A: -0.326

Q: Which “PBM E-score” value does the source give for ATGTTGCC here?
A: -0.138

Q: With GCGTTCAC as the sequence, how does the “PBM E-score” value read?
A: 0.125

Q: How did the “PBM E-score” value turn out when ACTACAGT was run?
A: -0.0341

Q: Which “PBM E-score” value does the source give for AAGCTACA here?
A: -0.125

Q: ATGCTTAA was tested. Which “PBM E-score” value did it give?
A: 0.0206

Q: For CATCACGC, which “PBM E-score” value is on record?
A: 0.00359

Q: With AAGATTAA as the sequence, how does the “PBM E-score” value read?
A: -0.102

Q: With GAAACCTA as the sequence, how does the “PBM E-score” value read?
A: -0.27

Q: For GACCCTTA, which “PBM E-score” value is on record?
A: -0.0817

Q: For CATTCCTC, which “PBM E-score” value is on record?
A: 0.164

Q: How did the “PBM E-score” value turn out when CACCTGCG was run?
A: -0.281

Q: How did the “PBM E-score” value turn out when ATATTGGC was run?
A: -0.138

Q: CCGGGTGA was tested. Which “PBM E-score” value did it give?
A: -0.231

Q: For AAGTGCGT, which “PBM E-score” value is on record?
A: 0.0739

Q: How did the “PBM E-score” value turn out when CTCGGCAG was run?
A: -0.0673

Q: For AAGCACCT, which “PBM E-score” value is on record?
A: -0.268

Q: For GCATAAAA, which “PBM E-score” value is on record?
A: 0.0634

Q: AAGATAGC was tested. Which “PBM E-score” value did it give?
A: -0.0625

Q: With AAGCTTTG as the sequence, how does the “PBM E-score” value read?
A: -0.102

Q: ATGTGAGC was tested. Which “PBM E-score” value did it give?
A: -0.0772

Q: TCAGGTCA was tested. Which “PBM E-score” value did it give?
A: -0.16

Q: For ACTCGTGA, which “PBM E-score” value is on record?
A: 0.0994

Q: Which “PBM E-score” value does the source give for CGTCCCGC here?
A: -0.11

Q: With AACGTTCG as the sequence, how does the “PBM E-score” value read?
A: 0.212

Q: How did the “PBM E-score” value turn out when ACTTTAAT was run?
A: -0.15

Q: For ATGCAGTA, which “PBM E-score” value is on record?
A: 0.0236

Q: For GAAAGAGA, which “PBM E-score” value is on record?
A: -0.0417

Q: Which “PBM E-score” value does the source give for ACCGTCCC here?
A: -0.194

Q: With CTTCTAGA as the sequence, how does the “PBM E-score” value read?
A: -0.0794

Q: How did the “PBM E-score” value turn out when ATCCGCTG was run?
A: -0.0853

Q: For AACTTCCG, which “PBM E-score” value is on record?
A: 0.043

Q: Which “PBM E-score” value does the source give for GTATTCAA here?
A: -0.0211

Q: For ACGGAGCG, which “PBM E-score” value is on record?
A: 0.263

Q: Which “PBM E-score” value does the source give for AACAGAAT here?
A: -0.174

Q: Which “PBM E-score” value does the source give for GTACCCGA here?
A: 0.206

Q: Which “PBM E-score” value does the source give for ACACTGCT here?
A: -0.116

Q: Which “PBM E-score” value does the source give for CTCTCCGA here?
A: -0.0584

Q: With GATACACA as the sequence, how does the “PBM E-score” value read?
A: -0.0452

Q: For CATTTTGG, which “PBM E-score” value is on record?
A: -0.12

Q: CTAAATCA was tested. Which “PBM E-score” value did it give?
A: -0.00665

Q: How did the “PBM E-score” value turn out when AGAAATAG was run?
A: -0.0417

Q: Which “PBM E-score” value does the source give for ACTTCTAA here?
A: 0.00078

Q: With GCCCGTCC as the sequence, how does the “PBM E-score” value read?
A: -0.239

Q: For TACTTGCA, which “PBM E-score” value is on record?
A: 0.0403

Q: Which “PBM E-score” value does the source give for ACGGTACG here?
A: 0.408

Q: CCTACATA was tested. Which “PBM E-score” value did it give?
A: -0.195

Q: For GGGTCTGA, which “PBM E-score” value is on record?
A: -0.274

Q: How did the “PBM E-score” value turn out when AGTCGAAA was run?
A: 0.0125

Q: For AGGTTCTG, which “PBM E-score” value is on record?
A: 0.0443

Q: Which “PBM E-score” value does the source give for GTGGCATA here?
A: -0.0936

Q: Which “PBM E-score” value does the source give for TGCCAGAA here?
A: -0.187

Q: How did the “PBM E-score” value turn out when GAGAAGAA was run?
A: 0.0432

Q: ACTGAGAG was tested. Which “PBM E-score” value did it give?
A: -0.236

Q: Which “PBM E-score” value does the source give for AGCGATTG here?
A: 0.0959

Q: With AGTAGCTC as the sequence, how does the “PBM E-score” value read?
A: -0.145

Q: How did the “PBM E-score” value turn out when ATATGCCG was run?
A: 0.196

Q: With TAGTTTCA as the sequence, how does the “PBM E-score” value read?
A: -0.0469

Q: How did the “PBM E-score” value turn out when GTAAATAA was run?
A: 0.191

Q: GACAGTCA was tested. Which “PBM E-score” value did it give?
A: 0.0137

Q: With AGGACATA as the sequence, how does the “PBM E-score” value read?
A: -0.0275

Q: Which “PBM E-score” value does the source give for GACATAAA here?
A: 0.0378

Q: How did the “PBM E-score” value turn out when GTCCTGTA was run?
A: 0.0245

Q: For GTATCCTA, which “PBM E-score” value is on record?
A: 0.053

Q: With CACAGACG as the sequence, how does the “PBM E-score” value read?
A: -0.14

Q: TACATGAA was tested. Which “PBM E-score” value did it give?
A: 0.131

Q: How did the “PBM E-score” value turn out when CACCTCGG was run?
A: 0.0436

Q: How did the “PBM E-score” value turn out when ACTGGACT was run?
A: -0.307

Q: Which “PBM E-score” value does the source give for GGAACTCC here?
A: -0.0932

Q: AAGGCATC was tested. Which “PBM E-score” value did it give?
A: 0.0322

Q: For CTAAAGCA, which “PBM E-score” value is on record?
A: -0.0624

Q: ATGTATCG was tested. Which “PBM E-score” value did it give?
A: 0.226

Q: Which “PBM E-score” value does the source give for ATCAGGTG here?
A: -0.13

Q: How did the “PBM E-score” value turn out when GTGTAAAC was run?
A: 0.17

Q: How did the “PBM E-score” value turn out when CTAGAGTC was run?
A: -0.259

Q: With AGAGACTC as the sequence, how does the “PBM E-score” value read?
A: 0.0674

Q: With CGAGTGCG as the sequence, how does the “PBM E-score” value read?
A: 0.14

Q: Which “PBM E-score” value does the source give for AGCCAACC here?
A: 0.0299

Q: How did the “PBM E-score” value turn out when AAGACGAC was run?
A: 0.133

Q: With TGAGATCA as the sequence, how does the “PBM E-score” value read?
A: -0.118

Q: With CTTCTTCC as the sequence, how does the “PBM E-score” value read?
A: -0.211

Q: With ACCGGGGA as the sequence, how does the “PBM E-score” value read?
A: -0.186

Q: ACACTGCA was tested. Which “PBM E-score” value did it give?
A: -0.0747

Q: With ACGTTTGG as the sequence, how does the “PBM E-score” value read?
A: 0.309

Q: For CGCGTCAG, which “PBM E-score” value is on record?
A: -0.163

Q: How did the “PBM E-score” value turn out when GAGAGGAA was run?
A: -0.049

Q: For ATACTCAT, which “PBM E-score” value is on record?
A: -0.111

Q: With ACCAGAAC as the sequence, how does the “PBM E-score” value read?
A: 0.0633

Q: Which “PBM E-score” value does the source give for AGAAAGGA here?
A: -0.227

Q: Which “PBM E-score” value does the source give for ATTTAACA here?
A: 0.0412

Q: How did the “PBM E-score” value turn out when AATCAAAT was run?
A: -0.133

Q: For AGGCAGGC, which “PBM E-score” value is on record?
A: -0.19

Q: With ATGGACAA as the sequence, how does the “PBM E-score” value read?
A: 0.0246

Q: For AGGGTATG, which “PBM E-score” value is on record?
A: -0.00582

Q: With CCAATTCC as the sequence, how does the “PBM E-score” value read?
A: -0.12

Q: ATTATCGC was tested. Which “PBM E-score” value did it give?
A: 0.0165

Q: How did the “PBM E-score” value turn out when CGGAAAAA was run?
A: 0.207

Q: With AACTGTGG as the sequence, how does the “PBM E-score” value read?
A: -0.257

Q: For ACCTGGGC, which “PBM E-score” value is on record?
A: -0.155

Q: With GGTTGAAC as the sequence, how does the “PBM E-score” value read?
A: 0.0628

Q: For CATTAACG, which “PBM E-score” value is on record?
A: 0.304
